# Out of some 310,000 compounds screened, about 18,000 (5.8%) were called active. Inconclusive results, whose numbers are uncertain, are shown with a selection of clear calls. Calls follow the shape of the dose curve; as a rule, active = well fitted inhibition curve with a large enough effect; inconclusive = small, poorly fitted or top-dose-only effect, or another doubt; inactive = no such curve, though single readings can be large or run the other way. No potency is given beside an inconclusive call; the fits are too rough.
# Assay: Primary qHTS for delayed death inhibitors of the malarial parasite plastid, 48 hour incubation
# Conditions: P. falciparum luciferase growth in erythrocytes; series mostly up to 28.7 µM
# Outline: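 Parasite viability was followed by luminescence of a genomically integrated firefly luciferase. Cultures held 0.1% parasitemia at 2% hematocrit (final), incubated under 5% CO2 at 37 C.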
# Potency is read from the fitted curve at half-maximal effect; tags tell the direction and shape of the fitted curve.
row,Compound,Potency
1,Cc1cc(C)n(-c2ccc(NC(=O)C3CCN(Cc4ccc(C)o4)CC3)cc2)n1,active: 13.1 µM
2,O=C1c2cc(F)ccc2OC2(CCNCC2)C12CC(c1ccccc1)=NO2 (stereo unspecified),"inconclusive [inhibitor, single point]"
3,Cc1ccc(NC(=O)c2cnccn2)nc1,inactive
4,Cc1ccc(CNCc2cccnc2)s1,inactive
5,CCOc1cc(CNCCc2c[nH]c3ccccc23)cc(Cl)c1OCC,"inconclusive [inhibitor, single point]"
6,COc1ccc(C(=O)OCC(=O)Nc2ccc(Cl)c(C(F)(F)F)c2)c(OC)c1OC,inactive
7,COc1ccc(-c2nc3ccccc3c(=O)n2CC(C)C)cc1,inactive
8,Cc1cccn2c(=O)c3cc(C#N)c(=NC(=O)c4ccncc4)n(CCCOC(C)C)c3nc12,active: 4.15 µM
9,COc1cccc2cc(C(C)N(CCCN3CCOCC3)C(=O)Nc3ccccc3)oc12 (stereo unspecified),"inconclusive [inhibitor, partial curve, poor fit]"
10,CC(=O)NC(Cc1c[nH]c2ccccc12)C(=O)NCCc1ccccn1 (stereo unspecified),inactive
11,CCOC(=O)/C=C(\C)Sc1cc(=O)oc2ccccc12,"inconclusive [inhibitor, single point]"
12,COc1ccc(Cc2nnc(N/N=C/c3ccc(O)cc3)[nH]c2=O)cc1OC,active: 9.28 µM
13,CCN1C(=O)c2cccc3c(NC(=O)c4ccccc4)ccc1c23,"inconclusive [inhibitor, partial curve, poor fit]"
14,O=C(NC(=S)Nc1ccccc1N1CCCC1)c1ccc(F)cc1,"inconclusive [inhibitor, single point]"
15,COc1ccc(N2CC(C(=O)Nc3cc(C(F)(F)F)ccc3N3CCCC3)CC2=O)c(OC)c1 (stereo unspecified),"inconclusive [inhibitor, partial curve, poor fit]"
16,COc1cc2c(cc1OC)CN(c1ccc([N+](=O)[O-])c(C(F)(F)F)c1)CC2,"inconclusive [inhibitor, partial curve, poor fit]"
17,O=C(O)c1ccc(S(=O)(=O)N2CCC(c3nc(-c4ccccc4Cl)no3)CC2)cc1,inactive
18,CCCCn1c(NS(=O)(=O)c2ccccc2)c(C(=O)OCC)c2nc3ccccc3nc21,active: 1.65 µM
19,COCCC(=O)N1CCC(Oc2ccc(C(=O)N3CCCCC3COC)cc2)CC1 (stereo unspecified),inactive
20,CC(C)(C)NC(=O)C(c1ccncc1)N(C(=O)Cn1nnc(-c2ccc(F)cc2)n1)c1cccc(F)c1 (stereo unspecified),"inconclusive [inhibitor, partial curve, poor fit]"
21,COc1ccccc1CNC(=O)CCCn1nc(C)c2c(C)n(-c3ccc(C)cc3)nc2c1=O,"inconclusive [inhibitor, partial curve]"
22,Cc1nn(C)c(Oc2ccccc2)c1CCNS(=O)(=O)c1ccc(F)cc1,"inconclusive [inhibitor, single point]"

row,Compound,Potency
1,C[C@H](C(=O)O)c1n[nH]c(=O)c2ccccc12,inactive
2,COc1cccc(/C=N/NC(=O)c2ccc3nc[nH]c3c2)c1O,"inconclusive [inhibitor, single point]"
3,COc1ccc(C(=O)N/N=C/c2ccc(OC)c(OS(=O)(=O)c3ccccc3)c2)cc1,"inconclusive [inhibitor, partial curve, poor fit]"
4,Cc1ccc(C)c2[nH]c(=O)c(CN(CCN3CCCC3)C(=O)Nc3ccc(F)cc3)cc12,active: 4.15 µM
5,CCOC(=O)c1c(S(=O)(=O)N(C)Cc2ccccc2)c(C)n(C)c1C,"inconclusive [inhibitor, single point]"
6,CC(C)(C)c1cc(C(=O)N/N=C/c2ccccc2O)n(-c2ccccc2)n1,"inconclusive [inhibitor, single point]"
7,COc1ccccc1C(c1nnnn1Cc1ccccc1)N1CCN(C2CCCC2)CC1 (stereo unspecified),"inconclusive [inhibitor, partial curve, poor fit]"
8,O=C(C1CCCN(S(=O)(=O)c2ccc(Br)s2)C1)N1CCCCCC1 (stereo unspecified),"inconclusive [inhibitor, partial curve, poor fit]"
9,COc1ccc(-c2csc(N(CC3CCCO3)C(=O)c3ccccc3)n2)cc1 (stereo unspecified),"inconclusive [inhibitor, partial curve, poor fit]"
10,Cc1cc(N2CCCCC2)nc(SCc2ccc(C#N)cc2)n1,active: 14.7 µM
11,COc1cccc(Nc2nc(N)c([N+](=O)[O-])c(NCc3ccco3)n2)c1,"inconclusive [inhibitor, single point]"
12,CC(C)(C)c1ccc(OCC(O)CN2CCN(C(=O)c3ccccc3)CC2)cc1 (stereo unspecified),"inconclusive [inhibitor, partial curve]"
13,O=C(NCc1csc2ccc(Cl)cc12)Nc1ccccc1,"inconclusive [inhibitor, single point]"
14,CC(NS(=O)(=O)c1cccc(Cl)c1)C(=O)Nc1ccc(-c2nc3ccccc3s2)cc1 (stereo unspecified),"inconclusive [inhibitor, single point]"
15,O=C1Nc2cc(C(=O)NCCCN3CCCC3)ccc2S/C1=C\c1ccccc1,active: 9.28 µM
16,O=C(Nc1ccc(S(=O)(=O)N2CCCC2)cc1)C1CCCN1C(=O)c1cccs1 (stereo unspecified),inactive
17,O=C(NC(NC(=S)N1CCOCC1)C(Cl)(Cl)Cl)c1ccc(Cl)cc1 (stereo unspecified),"inconclusive [inhibitor, single point]"
18,CC(Nc1cccc([N+](=O)[O-])c1)C(=O)Nc1ccc(S(=O)(=O)N2CCCC2)cc1 (stereo unspecified),"inconclusive [inhibitor, single point]"
19,COc1ccccc1-n1nnnc1SCC(=O)NCC1(N2CCOCC2)CCCCC1,"inconclusive [inhibitor, single point]"
20,COCCn1c(SCC(=O)N(C(C)C)C(C)C)nnc1-c1cc2ccccc2cc1O,"inconclusive [inhibitor, full curve]"
21,COc1ccc(NC(=O)CC(C)c2ccccc2)c([N+](=O)[O-])c1 (stereo unspecified),inactive
22,Cc1ccc(C(=O)OCC(=O)Nc2ccccc2)cc1S(=O)(=O)N1CCCCC1,"inconclusive [inhibitor, single point]"

row,Compound,Potency
1,COc1ccc(C2NN=C(c3ccc(C)cc3)S2)cc1OC (stereo unspecified),inactive
2,CCN1CCN(c2ccc(S(=O)(=O)N3CCOCC3)cc2NC(=O)c2ccc(C(F)(F)F)cc2)CC1,"inconclusive [inhibitor, single point]"
3,Cc1c(NS(=O)(=O)c2ccc(N3CCN(C)CC3)c([N+](=O)[O-])c2)c(=O)n(-c2ccccc2)n1C,"inconclusive [inhibitor, single point]"
4,COc1ccc2nc(C)cc(N/N=C/c3ccccc3)c2c1,active: 0.147 µM
5,NCC(O)(c1ccc(Cl)cc1)c1ccc(Cl)cc1,"inconclusive [inhibitor, single point]"
6,O=C(Cc1ccsc1)N1CCN(S(=O)(=O)c2cccc(F)c2)CC1,"inconclusive [inhibitor, partial curve, poor fit]"
7,CCCOc1ccc(C(=O)CCCC(=O)c2ccc(OCCC)cc2)cc1,"inconclusive [inhibitor, full curve, poor fit]"
8,CCN(CC)S(=O)(=O)c1ccc(N2CCOCC2)c(NC(=O)c2cccc3ccccc23)c1,"inconclusive [inhibitor, partial curve, poor fit]"
9,COc1ccc(C(CNC(=O)c2[nH]c(C)c(C(C)=O)c2C)N2CCOCC2)cc1 (stereo unspecified),"inconclusive [inhibitor, single point]"
10,COc1ccc(NC2CCCN(C(=O)CSc3ccccc3)C2)cc1 (stereo unspecified),"inconclusive [inhibitor, partial curve, poor fit]"
11,COc1ccccc1OCCNC(=O)CNC(=O)c1ccc(C(C)(C)C)cc1,"inconclusive [inhibitor, single point]"
12,CCNC(=S)NNc1ccccc1,inactive
13,O=C(CCC1CCCN(C(=O)c2ccc3cc[nH]c3c2)C1)NCc1ccc(F)c(F)c1 (stereo unspecified),"inconclusive [inhibitor, single point]"
14,COc1ccc(CCN2C(=O)N(c3ccc(OC)cc3)C(=O)C2CC(=O)Nc2ccc(OC)cc2)cc1 (stereo unspecified),"inconclusive [inhibitor, single point]"
15,O=C(NCc1cc(C(F)(F)F)cc(C(F)(F)F)c1)C1CC(c2ccccc2C(F)(F)F)=NO1 (stereo unspecified),"inconclusive [inhibitor, single point]"
16,C/C(=N\NC(=S)NC(C)C)c1ccccc1,"inconclusive [inhibitor, single point]"
17,CCN(CC)Cc1nc2c(c(=O)[nH]1)C1(CCCCC1)Cc1ccccc1-2,"inconclusive [inhibitor, partial curve]"
18,CC(C)c1ccc(S(=O)(=O)c2cn(Cc3ccc(F)cc3)c3cc4c(cc3c2=O)OCO4)cc1,"inconclusive [inhibitor, partial curve, poor fit]"
19,Cc1ccc2nc(Nc3ccccc3)cc(C)c2c1,"inconclusive [inhibitor, single point]"
20,O=C(N/C(=N\O)c1ccccc1)Nc1ccc(Cl)cc1,inactive
21,COc1cccc(OCC(=O)Nc2cc(NC(=O)COc3cccc(OC)c3)cc(C(=O)O)c2)c1,inactive
22,Cc1cccc(OCCn2c(-c3ccco3)nc3ccccc32)c1,"inconclusive [inhibitor, single point]"

# From PubChem BioAssay AID504832 (National Center for Advancing Translational Sciences (NCATS), 2011)
